Experimental data as given in PubChem BioAssay AID1508642 (National Center for Advancing Translational Sciences (NCATS), 2021).
The whole screen tested about 43,000 compounds, of which about 200 (0.47%) were called active. The shares of active, inactive and inconclusive entries below differ from those in the screen. Calls follow the shape of the dose curve; as a rule, active = well fitted cell-killing curve with a large enough effect; inconclusive = small, poorly fitted or top-dose-only effect, or effect the other way; inactive = flat fitted curve, though single readings scatter. A potency beside an inconclusive call is a rough fit, not a confirmed value.

Assay: Cell viability qHTS assay in S16 Pmp22-F2sN cells; also: nearly all actives have a fitted effect of over 65% in size
Conditions: S16 Pmp22-F2sN Schwann cells viability, CellTiter-Glo, 24 h; series mostly up to 57.5 µM
Method in brief: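 S16 Pmp22-F2sN Schwann cells (500-1,000/well) in phenol-red-free DMEM with 10% FBS received 23 nL compound by pin tool for 24 h at 37 °C. Viability was then read as CellTiter-Glo luminescence after 15 min at room temperature.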
Potency is read from the fitted curve at half-maximal effect; tags tell the direction and shape of the fitted curve.

Which Potency does the source give for `Cc1oc(-c2ccc(Cl)cc2)nc1CN1CCCC(C(=O)NCCc2ccccc2)C1` (centres undefined) here?
Its Potency is “inactive”.

For `CCCCOc1cccc(C(=O)N(Cc2ccc(Br)o2)C2CCS(=O)(=O)C2)c1` (centres undefined), which Potency is on record?
The Potency was “inactive”.

Which Potency does the source give for `CCN1CCN(c2cc(C)c3cc(NC(=O)/C=C/c4ccc(C)cc4)ccc3n2)CC1` here?
The Potency was inconclusive: 28.2 µM [cytotoxic, single point].

Which Potency does the source give for `COc1cccc(NC(=O)N(Cc2cn(C)c3ccccc23)C2CCCCCC2)c1` here?
Its Potency is inconclusive: 3.55 µM [rising, single point].

With `Cc1c(Cl)cccc1-n1nc(C)c2c(C)cc(=O)n(CC(=O)N3CCCc4ccccc43)c21` as the molecule, how does the Potency read?
Its Potency is inconclusive: 3.98 µM [cytotoxic, partial curve, poor fit].

Which Potency does the source give for `CCCNC(=O)C1CCN(c2nc3ccc(C)cc3[nH]2)CC1` here?
The Potency was “inactive”.

Which Potency does the source give for `CCOc1ccc(/C=C/c2nc(C#N)c(N3CCC(C)CC3)o2)cc1` here?
Its Potency is inconclusive: 39.8 µM [cytotoxic, single point].

With `CCc1ccc(Sc2cc(C(=O)NCCCN3CCC(C)CC3)c3ccccc3n2)cc1` as the molecule, how does the Potency read?
Its Potency is inconclusive: 39.8 µM [cytotoxic, partial curve, poor fit].

Which Potency does the source give for `O=C(Nc1cc(Cl)ccc1Cl)c1cc(S(=O)(=O)N2CCc3ccccc3C2)ccc1F` here?
The Potency was inconclusive: 28.2 µM [cytotoxic, partial curve].

For `Cc1ccc(-n2ncc3c(N4CCN(c5ccc(F)cc5)CC4)ncnc32)cc1`, which Potency is on record?
Its Potency is “inactive”.

For `COc1cc(NC(=O)c2nc3ccccc3n(C)c2=O)cc(OC)c1OC`, which Potency is on record?
The Potency was “inactive”.

For `COC(=O)c1ccc(NC(=O)C(=O)NCC(c2cccnc2)N2CCc3ccccc32)cc1` (centres undefined), which Potency is on record?
The Potency was inconclusive: 35.5 µM [cytotoxic, single point].

With `CCn1cc(C(=O)NCCc2ccc(C)cc2)c(=O)c2cc(S(=O)(=O)N3CCC(C)CC3)ccc21` as the molecule, how does the Potency read?
The Potency was inconclusive: 28.2 µM [cytotoxic, partial curve, poor fit].

Which Potency does the source give for `Cc1cccc(Cn2c(SCc3ccc(C(=O)NC4CCCC4)cc3)nc3cccnc32)c1` here?
The Potency was inconclusive: 35.5 µM [cytotoxic, single point].

For `CCn1cc(S(=O)(=O)c2cccc(Cl)c2)c(=O)c2cc(F)c(N3CCN(C)CC3)cc21`, which Potency is on record?
The Potency was inconclusive: 31.6 µM [cytotoxic, single point].

With `COc1ccc(OC)c(S(=O)(=O)NCC(c2ccco2)S(=O)(=O)c2ccccc2)c1` (centres undefined) as the molecule, how does the Potency read?
The Potency was inconclusive: 11.2 µM [cytotoxic, partial curve].

For `Cc1ccccc1OCCCCn1c(CCNC(=O)C(C)(C)C)nc2ccccc21`, which Potency is on record?
The Potency was inconclusive: 39.8 µM [cytotoxic, single point].

Which Potency does the source give for `COc1ccc(OC)c(CNC(=O)c2ccc(NC(=O)c3nsc4ccccc34)cc2)c1` here?
Its Potency is inconclusive: 39.8 µM [cytotoxic, single point].

Which Potency does the source give for `COc1ccc(-c2c(C)nn3c(C(F)(F)F)cc(-c4ccccc4)nc23)cc1OC` here?
The Potency was “inactive”.

For `COc1ccc(N(C)C(=O)c2cc3c(s2)-c2c(C)cccc2OC3)c(OC)c1`, which Potency is on record?
Its Potency is inconclusive: 39.8 µM [cytotoxic, single point].

With `COc1cccc(CNC(=O)C2CCN(C(=O)c3cnn(-c4ccccc4)c3-n3cccc3)CC2)c1` as the molecule, how does the Potency read?
The Potency was inconclusive: 39.8 µM [cytotoxic, single point].

With `CCCS(=O)(=O)c1ncc(Cl)c(C(=O)Nc2c(C(=O)Nc3ccccc3)oc3ccccc23)n1` as the molecule, how does the Potency read?
Its Potency is inconclusive: 35.5 µM [cytotoxic, single point].

With `COc1ccccc1CNC(=O)CSc1nnc(C)c2c(C)n(-c3ccccc3)nc12` as the molecule, how does the Potency read?
Its Potency is inconclusive: 39.8 µM [cytotoxic, single point].

For `CCOc1ccc(NCc2nc3ccccc3n2CCOc2ccc(C)cc2)cc1`, which Potency is on record?
Its Potency is inconclusive: 31.6 µM [cytotoxic, single point].

With `CCC(C)NC(=O)Cn1c(=O)n(Cc2ccc(C(=O)NCc3ccc(C)cc3)cc2)c(=O)c2ccccc21` (centres undefined) as the molecule, how does the Potency read?
Its Potency is inconclusive: 1.78 µM [rising, full curve, poor fit].

Which Potency does the source give for `COc1ccc(S(=O)(=O)N2CCC(C(=O)Nc3cc(C(F)(F)F)ccc3Cl)CC2)cc1` here?
The Potency was inconclusive: 22.4 µM [cytotoxic, single point].

Which Potency does the source give for `CCCCCn1cc2c(c1-c1ccccc1Br)c(=O)n(C)c(=O)n2C` here?
Its Potency is inconclusive: 0.355 µM [rising, partial curve, poor fit].

Which Potency does the source give for `CCOc1ccc2ncc3c(-c4cccc(OC)c4)nn(-c4ccccc4)c3c2c1` here?
The Potency was “inactive”.

For `Cn1nnnc1SCCCNCc1cccc(OCc2ccccc2)c1`, which Potency is on record?
The Potency was “inactive”.

With `CCOc1ccccc1NC(=O)C1CCCN1S(=O)(=O)c1ccc2nc(-c3ccccc3)[nH]c2c1` (centres undefined) as the molecule, how does the Potency read?
Its Potency is inconclusive: 25.1 µM [cytotoxic, single point].

Which Potency does the source give for `COc1ccc(/C=C(\C#N)c2nc3ccccc3c(=O)[nH]2)cc1OC` here?
The Potency was “inactive”.

With `CCc1ccc(NC(=O)C2=CC(c3cccs3)=NS(=O)(=O)N2C)cc1` as the molecule, how does the Potency read?
The Potency was inconclusive: 5.62 µM [cytotoxic, partial curve, poor fit].

For `CCCCCNC(=O)C1CCC(Cn2c(=O)c3sccc3n(CC(=O)NCc3cccc(OC)c3OC)c2=O)CC1` (centres undefined), which Potency is on record?
Its Potency is inconclusive: 0.0282 µM [rising, full curve, poor fit].

For `CCCCN(C)C(=O)CSc1nc2ccccc2nc1Cc1ccc(C)cc1`, which Potency is on record?
Its Potency is inconclusive: 10 µM [rising, partial curve, poor fit].

Which Potency does the source give for `CC(C)OCc1cc(CN2CCN(c3cccc(C(F)(F)F)c3)CC2)c(O)c2ncccc12` here?
The Potency was inconclusive: 2.51 µM [cytotoxic, full curve].

Which Potency does the source give for `O=C(Cn1ncc2c3ccccc3n(Cc3cccc(Cl)c3)c2c1=O)Nc1ccc(F)cc1F` here?
Its Potency is inconclusive: 31.6 µM [cytotoxic, single point].

For `CCN1CCc2c(sc(-n3cccc3)c2C(C)NC(=O)Nc2ccc(Br)cc2)C1` (centres undefined), which Potency is on record?
The Potency was “inactive”.

Which Potency does the source give for `Cc1ccccc1C(=O)Nc1ccc2nc(N3CCCCC3)cc(C)c2c1` here?
Its Potency is inconclusive: 39.8 µM [cytotoxic, single point].

For `CCn1c2c(c(=O)n3ncc(C(=O)N4CCN(c5ccc(Cl)cc5)CC4)c13)CN(Cc1ccc(OC)cc1)CC2`, which Potency is on record?
Its Potency is inconclusive: 11.2 µM [cytotoxic, partial curve].
